# In PubChem BioAssay AID504832 (National Center for Advancing Translational Sciences (NCATS), 2011):
# Hit rate of the full screen: of about 310,000 compounds, about 18,000 (5.8%) were called active. This list was built around the results that the source calls inconclusive (neither active nor inactive); the mix of calls is not that of the screen. Calls follow the shape of the dose curve; as a rule, active = well fitted inhibition curve with a large enough effect; inconclusive = small, poorly fitted or top-dose-only effect, or another doubt; inactive = no such curve, though single readings can be large or run the other way. Potencies of inconclusive entries are left out as doubtful fits.
# Experiment: Primary qHTS for delayed death inhibitors of the malarial parasite plastid, 48 hour incubation
# Conditions: P. falciparum luciferase growth in erythrocytes; series mostly up to 28.7 µM; activity change, negative = inhibition: at the top concentration
# Summary of the method: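 In quantitative HTS format, infected erythrocytes bearing luciferase-reporter parasites were treated for a single generation at 37 C. Luminescence after adding detection reagent served as the growth measure.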
# % is scaled to controls: 0 for no effect and ±100 for the full control effect; potency is read from the fitted curve at half-maximal effect; tags tell the direction and shape of the fitted curve.
SMILES,"activity change, negative = inhibition",Potency
Cc1ccc(-n2nc3c(=S)[nH]nc(C)c3c2C)cc1,inactive: 4.62%,–
Cc1ccc(S(=O)(=O)N2CCCCC2)cc1NC(=O)C1CC(=O)N(c2ccc3c(c2)OCCO3)C1 (configuration not stated),–,"inconclusive [inhibitor, single point]"
Cc1cccc(-c2nnc(SCC(=O)NC3CC3)n2C)c1,–,"inconclusive [inhibitor, full curve]"
CCn1c(SCC(=O)N/N=C/c2c[nH]c3ccccc23)nnc1-c1ccc(C(C)(C)C)cc1,–,"inconclusive [inhibitor, single point]"
FC(F)(F)c1ccc(Oc2ccc3ccccc3c2Br)nc1,–,"inconclusive [inhibitor, single point]"
COc1ccc(CC(=O)Nc2ccccc2N2CCCC2)cc1OC,–,"inconclusive [inhibitor, full curve, poor fit]"
CCOC(=O)c1ccccc1NC(=O)CSc1nnnn1C,–,"inconclusive [inhibitor, partial curve, poor fit]"
Cc1ccccc1OCC(=O)NNC(=O)CCN1C(=O)c2ccccc2C1=O,inactive: 1.5%,–
Cc1ccc(N2C(=O)N(Cc3ccccc3C)c3ccccc3S2(=O)=O)cc1,inactive: -10.7%,–
CCN1CCCC1CNC(=O)c1cc(S(=O)(=O)N(C)C)ccc1Cl (configuration not stated),inactive: 17%,–
O=C(c1ccc(Br)o1)N1CCN(Cc2ccccc2Cl)CC1,–,active: 11.7 µM
CCCN(CCC)C(=O)Cn1ccc(=N)c2ccccc21,–,active: 1.65 µM
O=C(COc1ccc2c(c1)CCC2)N1CCN(c2ccc(F)cc2)CC1,–,"inconclusive [inhibitor, single point]"
Cc1nc(SCC(=O)c2ccccc2)c(C#N)c(-c2ccco2)c1C(=O)NCc1ccco1,–,active: 9.28 µM
COC(=O)c1ccc(-n2c(C)cc(-c3csc(NC(=O)c4ccc(S(=O)(=O)N(C)C)cc4)n3)c2C)cc1,–,"inconclusive [inhibitor, single point]"
CCn1c(SCC(=O)N2CCCc3ccccc32)nnc1-c1ccco1,–,"inconclusive [inhibitor, single point]"
CSc1cccc(NS(=O)(=O)c2ccc(-c3coc(C)n3)cc2)c1,inactive: -6.68%,–
CCN(C(=O)c1cn(CC)c(=O)c2cc(OC)c(OC)cc12)c1ccccc1C,–,"inconclusive [inhibitor, single point]"
Cn1cc(CN2CCc3ccccc3C2)c2ccccc21,–,"inconclusive [inhibitor, single point]"
Cc1ccc(-n2nnnc2-c2cnc3ccc(Cl)cc3c2-c2ccccc2)cc1,–,"inconclusive [inhibitor, partial curve, poor fit]"
O=C(CCC(=O)N1CCOc2ccc(Cl)cc21)NCCCN1CCC(Cc2ccccc2)CC1,–,"inconclusive [inhibitor, single point]"
O=C(Nc1c2c(nn1-c1ccc([N+](=O)[O-])cc1)CS(=O)(=O)C2)c1cccs1,–,"inconclusive [inhibitor, single point]"
Cc1cccc(/C=C2\Sc3ccc(C(=O)N4CCC(C)CC4)cc3N(C)C2=O)c1,–,"inconclusive [inhibitor, partial curve]"

SMILES,"activity change, negative = inhibition",Potency
Cc1ccc(O)c(C(=O)c2cc(C(=O)NCc3ccccc3)c(=O)n(Cc3ccccc3)c2)c1,–,active: 3.7 µM
Cc1ccc(C)c(-n2nnnc2SCC(=O)c2ccc3c(c2)NC(=O)CO3)c1,–,"inconclusive [inhibitor, single point]"
Cc1ccc(CSCC(=O)NCc2cccnc2)cc1,inactive: 1.06%,–
COc1ccccc1NS(=O)(=O)c1cc(NC(=O)c2ccc(=O)[nH]c2)ccc1N1CCOCC1,–,"inconclusive [inhibitor, full curve]"
CCC1CCCCN1CCCNC(=O)CNC(=O)c1nn(-c2ccc(OC)c(Cl)c2)c(=O)c2ccccc12 (configuration not stated),–,active: 5.22 µM
COc1cc(/C=C2\CCC(C3CCCC3)C2=O)ccc1OC(C)C (configuration not stated),–,active: 2.08 µM
O=C(NCCC1=CCCCC1)C1CCN(S(=O)(=O)c2cccs2)CC1,–,"inconclusive [inhibitor, single point]"
COc1cc(/C=C/C(=O)c2ccc3c(c2)OCCO3)cc(Br)c1OCC(=O)N(C)C,–,"inconclusive [inhibitor, single point]"
O=C(NCc1ccco1)c1ccc(S(=O)(=O)c2cccc(S(=O)(=O)N3CCOCC3)c2)cc1,–,"inconclusive [inhibitor, partial curve]"
Cc1nn(-c2ccc(F)cc2)c(Cl)c1C(=O)OC(C)C(=O)N(C)C1CCCCC1 (configuration not stated),–,"inconclusive [inhibitor, partial curve, poor fit]"
CNc1nc(NCc2ccccc2)c2ccccc2n1,–,active: 1.17 µM
COc1ccccc1N1CC(C(=O)Nc2cc(C(F)(F)F)ccc2N2CCCC2)CC1=O (configuration not stated),–,"inconclusive [inhibitor, single point]"
CC(=O)NC(CC(=O)N(C)Cc1cccc(Cl)c1Cl)c1ccccc1 (configuration not stated),–,"inconclusive [inhibitor, partial curve]"
Cc1ccc(C(=O)COc2ccccc2-c2ccccc2)cc1C,–,"inconclusive [inhibitor, partial curve]"
CCCCCC(=O)N1CCN(c2ccc(C(C)=O)cc2F)CC1,inactive: 7.86%,–
Cc1ccc(NC(=O)CNc2cccc(S(=O)(=O)N3CCCC3)c2)cc1F,–,active: 9.28 µM
Cc1cccc(C(=O)NCC(=O)NCCSc2ccc(Br)cc2)c1,–,"inconclusive [inhibitor, single point]"
O=C(N/C(=C\c1cccs1)C(=O)N1CCCCCC1)c1ccccc1,–,"inconclusive [inhibitor, partial curve, poor fit]"
Cc1nc(NC(=O)/C=C/c2ccc(C(C)(C)C)cc2)sc1C(=O)N(C)C,–,"inconclusive [inhibitor, single point]"
Cn1cc(CN(Cc2ccccc2)C[C@@H]2CCC(=O)N2)c(-c2ccccc2F)n1,inactive: -27.6%,–
Cc1ccc(S(=O)(=O)N2CCCC2)cc1C(=O)NCCOc1ccccc1,–,"inconclusive [inhibitor, single point]"
COc1ccc(NS(=O)(=O)c2cccc(C(=O)N/N=C/c3cccs3)c2)cc1,–,"inconclusive [inhibitor, single point]"
COc1cc(-c2noc(C)c2/C=C/c2cccc([N+](=O)[O-])c2)cc(OC)c1OC,–,"inconclusive [inhibitor, single point]"

SMILES,"activity change, negative = inhibition",Potency
O=C(c1cc([N+](=O)[O-])ccc1Cl)N1c2ccccc2Sc2ccccc21,–,active: 7.38 µM
NCCCC[C@@H](C(=O)NCCCCCCCCCCC(=O)N1CCNCC1)n1cc(CCO)nn1,–,"inconclusive [inhibitor, partial curve, poor fit]"
Cc1nn(CCCC(=O)NC(C)c2ccccc2)c(=O)c2nn(-c3ccccc3)c(C)c12 (configuration not stated),–,"inconclusive [inhibitor, single point]"
Cn1c(C(=O)N2CCCC(C(=O)NCCCc3ccccc3)C2)cc2sccc21 (configuration not stated),–,"inconclusive [inhibitor, single point]"
COC(=O)c1ccsc1NC(=O)CCc1ccccc1,inactive: 131%,–
Cc1noc(C)c1CSCC(=O)Nc1ccccc1N1CCCCC1,–,"inconclusive [inhibitor, single point]"
CCN(CC)C(=O)Cn1cnc2sc(C(=O)NCCCN3CCOCC3)c(C)c2c1=O,inactive: 36.5%,–
NC1=C(c2ccc(F)cc2)C(=O)CS1,–,"inconclusive [inhibitor, full curve, poor fit]"
CCOC(=O)C(=CNc1ccc(NC2=NCC(C)(C)S2)cc1)C(=O)OCC,–,"inconclusive [inhibitor, single point]"
Cc1ccc(N(CC(=O)N/N=C/c2ccc(OC3CSC3)cc2)S(=O)(=O)c2ccccc2)cc1,–,"inconclusive [inhibitor, single point]"
NNC(=O)c1cc(C23CC4CC(CC(C4)C2)C3)nc2ccccc12,–,"inconclusive [inhibitor, single point]"
On1ccccc1=S,–,active: 0.828 µM
COc1ccc(N/C(=N/c2nc(C)cc(C)n2)NC(=O)c2ccccc2)cc1,inactive: 23.8%,–
O=C(OCC(=O)N1CCOCC1)c1ccccc1Br,inactive: 67.6%,–
CC(C)COP(=O)(OCC(C)C)C(Nc1ccccc1)c1ccccc1 (configuration not stated),–,"inconclusive [inhibitor, partial curve]"
O=C(NCC(=O)N(Cc1cccs1)C(C(=O)NC1CCCCC1)c1ccco1)c1cccs1 (configuration not stated),–,"inconclusive [inhibitor, partial curve, poor fit]"
COCCOC(=O)c1c(N)n(Cc2ccccc2)c2nc3ccccc3nc12,–,"inconclusive [inhibitor, single point]"
COc1cn(-c2ccccc2)nc1C(=O)NCc1ccc(C)cc1,–,"inconclusive [inhibitor, partial curve]"
CC1=Nn2c(nnc2-c2cc(C)[nH]n2)SC1,–,"inconclusive [inhibitor, single point]"
CC(C)CCOP(=O)(c1ccc(N(C)C)cc1)C(O)c1ccc(C(C)C)cc1 (configuration not stated),–,"inconclusive [inhibitor, single point]"
Cc1ccc(C)c(S(=O)(=O)N2CCC(c3nc4c(nnn4Cc4ccc(F)cc4)c(=O)[nH]3)CC2)c1,–,"inconclusive [inhibitor, single point]"
